In all, about 110,000 compounds were measured (“z-score”: median about -0.1, highest 2% from about 2 on). This is one part of the list. Calls of active or inactive are those of the source.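 How the source made its calls: active means z-score in the third read window above 3 or below -3; inactive means the rest.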

This assay concerns the target Metabotropic glutamate receptor 8 (Rattus norvegicus) (UniProt P70579). Kind of assay: rat mGluR8 modulators via GIRK flux, primary screen, cell-based, thallium flux, HTS (AID 488969). To be noted: HEK293 rat mGluR8, GIRK (G protein-gated inwardly rectifying potassium channel) thallium flux, FluoZin2; at 10 µM; stronger effect = higher value; submaximal glutamate (EC20) added with thallium.
Sequence of UniProt P70579 (P70579 whole entry, looked up): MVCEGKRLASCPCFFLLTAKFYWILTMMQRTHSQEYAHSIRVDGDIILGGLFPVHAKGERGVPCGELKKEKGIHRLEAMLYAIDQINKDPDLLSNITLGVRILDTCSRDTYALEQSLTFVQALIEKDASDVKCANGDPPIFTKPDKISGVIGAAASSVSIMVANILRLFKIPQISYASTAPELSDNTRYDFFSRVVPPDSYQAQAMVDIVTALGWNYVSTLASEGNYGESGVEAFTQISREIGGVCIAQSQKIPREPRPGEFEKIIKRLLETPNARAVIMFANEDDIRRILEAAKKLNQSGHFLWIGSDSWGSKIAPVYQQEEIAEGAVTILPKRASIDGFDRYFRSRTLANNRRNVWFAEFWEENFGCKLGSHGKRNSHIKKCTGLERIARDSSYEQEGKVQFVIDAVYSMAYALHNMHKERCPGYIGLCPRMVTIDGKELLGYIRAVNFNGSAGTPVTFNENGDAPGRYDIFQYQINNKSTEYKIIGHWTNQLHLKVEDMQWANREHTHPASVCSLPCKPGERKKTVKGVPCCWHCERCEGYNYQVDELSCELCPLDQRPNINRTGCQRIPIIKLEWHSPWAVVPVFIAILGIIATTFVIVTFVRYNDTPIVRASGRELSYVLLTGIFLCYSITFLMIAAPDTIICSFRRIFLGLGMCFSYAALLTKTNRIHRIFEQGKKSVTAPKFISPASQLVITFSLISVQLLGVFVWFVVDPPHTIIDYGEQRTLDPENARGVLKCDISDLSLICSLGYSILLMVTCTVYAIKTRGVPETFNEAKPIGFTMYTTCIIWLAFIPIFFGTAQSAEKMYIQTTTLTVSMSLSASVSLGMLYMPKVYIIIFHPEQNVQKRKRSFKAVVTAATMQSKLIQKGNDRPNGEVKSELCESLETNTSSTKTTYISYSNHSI
As to `Cc1ccc2cc(C#N)c(NCCNC(=O)C3CC3)nc2c1C`, the z-score was -0.424. The result for `O=C(O)CCC(=O)NCCn1c(-c2ccccc2)csc1=Nc1ccccc1` reads -0.875; that for `CCCc1[nH]c(=O)c(C#N)c2c1CCCC2`, -0.749; that for `CC(=O)Nc1ccc(S(=O)(=O)Nc2cccc(-c3nc4ccccc4o3)c2)cc1`, -0.164.

As to `CCC(C)NC(=O)C1CCN(S(=O)(=O)c2cccc3cccnc23)CC1` (centres undefined), the z-score is -0.223.

`Cc1noc(/C=C/N(C)C)c1S(=O)(=O)N1CCCC(C(=O)NC2CCCCC2)C1` (centres undefined) had a z-score of -0.19. The result for `O=c1[nH]c(Cc2cccs2)nc2ccccc12` reads -0.42; that for `COc1cccc(NC(=O)CC2COc3ccccc3O2)c1` (centres undefined), active: 5.36.

With `COc1cc(NC(=S)NC(=O)c2ccc(C)cc2C)ccc1NC(=O)c1cccs1`, the z-score worked out at 0.0737. The result for `CN1C(=O)COc2ccc(C(=O)c3oc4ccccc4c3-c3cnc4c(c3)COc3ccccc3-4)cc21` reads -0.142; that for `C=CCN1C(=O)C(Cc2ccc(F)cc2)S/C1=N/N=C/c1ccco1` (centres undefined), -0.00476. Next, `Cc1ccsc1/C=C(/C#N)C(=O)NCc1ccccc1`: -0.161; `O=C(NCc1ccncc1)C1CCCN(S(=O)(=O)Cc2ccccc2)C1` (centres undefined): -0.193. Next, `Cc1ccc(C)c(-n2c(-c3csc(C)c3)n[nH]c2=S)c1`: -0.125.

Regarding `CCN1C(=O)C(CC(=O)Nc2cc(C)ccc2C)SC1=Nc1ccc(S(N)(=O)=O)cc1` (centres undefined), the z-score is -0.0644. Next, `O=c1[nH]ncc(N2CCN(C(c3ccccc3)c3ccccc3)CC2)c1Cl`: 0.0469. Next, `COc1cc(OC)cc(-c2cc3nc(C)c(CCC(=O)NC(C)CCc4ccco4)c(C)n3n2)c1` (centres undefined): -1.18. Next, `N=c1c2c(n(Cc3ccc(Cl)cc3)c3c1CCC3)CCC2`: -0.147; `Cc1ccc(S(=O)(=O)N/N=C/c2ccc(OCC(=O)NC(C)C)cc2)cc1`: -0.144; `CC1Cc2ccccc2N1C(=O)COC(=O)c1ccc(S(=O)(=O)N(C)C)cc1` (centres undefined): -0.0173. In turn, `Cc1ccc(NC(=O)c2ccc(Cn3cc([N+](=O)[O-])cn3)cc2)c(C)c1` had a z-score of -0.473. Next, `COCc1cc(C)nc(N2CCOCC2)c1C#N`: 0.183; `O=S(=O)(Nc1ccncc1Cl)c1ccccc1`: 0.357; `NC(=O)c1c(NC(=O)CSc2nnc(-c3ccccc3)n2CC2CCCO2)sc2c1CCC2` (centres undefined): 0.722.

In turn, `Cc1ccc(N2C(=O)CC(N3CCN(C)CC3)C2=O)cc1` (centres undefined) showed a z-score of -0.215.

`CN1c2ccccc2N(C)C1c1ccc2c(c1)OCO2` yielded a z-score of 0.441. The result for `O=C(Cc1ccccc1)Nc1ccc(NC(=O)c2ccco2)nc1` reads -0.913; that for `c1cc2nnnn2nc1N1CCCCCC1`, -0.0455; that for `Cc1ccc(CNC(=O)CSc2nc3n[nH]c(C)c3c(=N)n2-c2cccc(C)c2)cc1`, -0.121.

Turning to `CCN1CCN(c2ccc(NC(=O)CCc3c(C)nc4c(-c5ccccc5)c(C)nn4c3C)cc2)CC1`, the z-score is active: 3.06. The result for `CC(=O)c1cccc(NS(=O)(=O)c2ccc(N/C=C/C(=O)c3ccc(F)cc3)cc2)c1` reads -0.174. The result for `Cc1ccc(S(=O)(=O)c2nc(S(C)(=O)=O)sc2N(C)C)cc1` reads 0.113. With `O=C(Nc1c(F)cccc1F)c1ccc(-n2cncn2)nc1`, the z-score is -0.106. In turn, `COc1ccc(C(=O)Nc2c(F)c(F)c(F)c(F)c2F)c(OC)c1` registered a z-score of -0.876. The result for `COc1ccc(C)cc1S(=O)(=O)N(C)CC(N)=O` reads -0.447; that for `NC(=S)N/N=C/c1ccccc1OCCSc1ccc(Cl)cc1`, -0.0247; that for `CN(C)c1nc2c(c(=O)[nH]c(=O)n2C)n1Cc1ccc(F)cc1`, 0.644. Compound `CCOc1ccc2nc(NC(=O)CN3CCC(n4nnc5cc(F)ccc54)CC3)sc2c1` gave a z-score of 1.71.

As for `C/C(=N\OC(=O)c1ccc(Cl)cc1)c1nccs1`, the z-score is -0.0963. Next, `O=C(Nc1ccc(S(=O)(=O)Nc2nccs2)cc1)c1cc(-c2ccccc2)nc2ccccc12`: -0.29; `CCNS(=O)(=O)c1cc(S(C)(=O)=O)ccc1Cl`: active: 8.32; `CCn1c(NCc2cccs2)nc2ccccc21`: -0.137. The result for `O=C(Cn1c(=O)n(CCCCC(=O)NC2CCCC2)c(=O)c2ccccc21)NCCC1=CCCCC1` reads -0.381; that for `O=C(O)CCC(=O)NNC(=O)CCC(=O)NCc1ccccc1`, 0.0834.

The compound `CC(CCc1ccccc1)NC(=O)COC(=O)C1=COCCO1` (centres undefined) registered a z-score of 0.664. In turn, `CN(CC(=O)Nc1ccccc1C(F)(F)F)C(=O)COc1ncnc2sccc12` registered a z-score of 1.2. The result for `Cc1nn(-c2ccccc2)c(C)c1C(=O)OCC(=O)N1CC(=O)Nc2ccccc21` reads -0.579. Next, `C=CCn1c(=N)n(CC(O)COc2ccc(OC)cc2)c2ccccc21` (centres undefined): -1.16; `C[C@H](N)c1nnc(SCC(=O)N(C)C)o1`: -0.0515. In the case of `CC(=O)C(C)Oc1ccc2c3c(c(=O)oc2c1)CCCC3` (centres undefined), the z-score turned out to be 0.0817. In turn, `CC(C(=O)N1CCCc2c1c(=O)oc1ccc(O)cc21)N1CCc2ccccc2C1` (centres undefined) had a z-score of 0.434. Next, `CCCCCn1c(CN2CCN(C)CC2)nc2c1c(=O)n(C)c(=O)n2C`: -0.241; `CCc1c(C)c2ccc(OCC(=O)OC(C)C)c(C)c2oc1=O`: 0.0796; `c1cncc(CNc2cccc(-c3nc4ccccc4[nH]3)c2)c1`: -0.311. For the compound `CCOC(=O)c1ccc(NC(=O)c2nn(CC)cc2Br)cc1`, the z-score stood at 0.192.

Turning to `CCN1CCCC1CNC(=O)C(=O)Nc1cccc(OC)c1` (centres undefined), the z-score is 2.04. The result for `O=S(=O)(Nc1ccc(Cc2ccncc2)cc1)c1cccs1` reads -0.0895; that for `COc1ccc(C(=O)CSc2nnc(C3CC3)n2N)cc1`, 0.0634. The result for `Cc1ccc(N(CC(=O)NC2CCCCCC2)S(=O)(=O)c2c(C)nn(C)c2C)cc1` reads -0.41; that for `C=C(CCC(=O)c1ccccc1)C(=O)c1ccccc1`, -0.396; that for `Cc1nc(C(=O)Nc2cccc(Cl)c2Cl)nn1-c1cc(OC(C)C)c(Cl)cc1Cl`, -0.108. The result for `Cc1ccc(N=Nc2c(N)n(-c3ccccc3)[nH]c2=O)cc1` reads -0.102; that for `O=S(=O)(c1ccccc1)n1nc(-c2ccccc2)nc1NCc1ccco1`, -0.0427; that for `COc1ccc(/C(O)=C2/C(=O)C(=O)N(CCCC(=O)O)C2c2ccc(OC)c(OC)c2)cc1` (centres undefined), 0.313. Regarding `CCOC(=O)c1sc(NC(=O)c2ccc(Cl)s2)cc1C`, the z-score was -0.211. The result for `CN1CCN(/C=C2\SC(=S)NC2=O)CC1` reads -0.54; that for `O=C(Nc1ccc2c(c1)nc1n2CCSC1)c1ccco1`, -0.685; that for `CC(C)C(=O)Nc1cccc(NC(=O)c2ccc(Cl)cc2Cl)c1`, -0.304. Next, `O=C(OC(C(=O)NC1CCCCC1)c1ccccc1)c1ccco1` (centres undefined): -0.0658; `CC(=O)Nc1ccc(SCC(=O)c2cc(C)n(CC(F)(F)F)c2C)cc1`: 0.0826; `CS(=O)(=O)c1ccc(Cl)c(NC(=O)C2CC(=O)N(Cc3ccccc3)C2)c1` (centres undefined): 0.229.

With `CCOC(=O)c1ccc(NC(=O)c2ccc(C)c(S(=O)(=O)N3CCOCC3)c2)cc1`, the z-score is -0.00222.

Compound `CC1CCN(C(=O)C2CCN(C(=O)c3cc4sccc4n3Cc3ccc(F)cc3)CC2)CC1` yielded a z-score of -1.14.

In turn, `CCCCCOc1ccc(C(=O)NCC(=O)NCC(=O)OCC)cc1` yielded a z-score of -0.24. Next, `CCn1c(CNC(=O)Cc2ccc(OC)cc2)nnc1SCC(=O)c1ccc(Br)cc1`: -0.124. Next, `COCCn1c(C)cc2c(c1=O)C(c1ccco1)C(C#N)=C(N)O2` (centres undefined): 0.0712; `O=C(CSc1nc(-c2ccc(F)cc2)cs1)NC(=O)NCc1ccco1`: -0.459; `CC1CC(C)CN(CCCNC(=O)c2ccc3c(c2)NC(=O)C(N2CCCCC2)S3)C1` (centres undefined): 2.18. Next, `O=C(c1cccn2c(=O)c3ccc(Cl)cc3nc12)N1CCN(Cc2ccc3c(c2)OCO3)CC1`: 0.29; `CNc1nc2c3ccccc3n(C(C)=O)c2s1`: 0.0868; `O=C(CCCO)c1ccc2c(c1)OCCO2`: 0.507. For `O=C1SCC(c2ccc(Cl)cc2Cl)=NN1Cc1nnc(-c2ccccc2)o1`, the z-score was 0.0379.

In turn, `COc1ccc(S(=O)(=O)N2CCc3ccccc32)cc1C(=O)OCc1nnc(-c2ccccc2)o1` displayed a z-score of -1.3. Next, `Cc1ccc(-c2nnn(CCOc3cccc(Br)c3)n2)cc1`: -0.298. The compound `CC(C)N(Cc1nc(-c2ccccc2)no1)C(=O)c1ccc(Cl)cc1` gave a z-score of -0.228. Next, `CC(C)(C)C1CCC(C(=O)Nc2ccccc2)CC1` (centres undefined): 0.307.

The compound `Cc1cc(C)c(C(=O)COc2cccnc2[N+](=O)[O-])cc1C` showed a z-score of -0.277. The result for `CCCC1(C(=O)O)NC(c2ccccc2O)C2C(=O)N(Cc3ccccc3)C(=O)C21` (centres undefined) reads 0.746; that for `COC(=O)c1ccc(NC(=O)COC(=O)CSc2nc(C)cc(C)n2)cc1`, -0.177. Next, `COc1ccc(/C(N)=N/OC(=O)c2ccc(C)c([N+](=O)[O-])c2)cc1`: -0.11.

`O=C(CSc1ncnc2nc[nH]c12)N1CCN(c2ccc(Cl)cc2)CC1` had a z-score of -0.192. The result for `CCc1ccc(NC(=O)CSc2nnc(CNC(=O)c3c(F)cccc3Cl)o2)cc1` reads -0.26. Next, `CCOC(=O)c1c(N2C(=O)Nc3cc(Cl)c(Cl)cc3N2O)sc2c1CCCCC2`: -0.911; `Cc1cc2cc(CNC(=O)Nc3cccc(Cl)c3)ccc2n1C`: -0.422. The result for `C/C(=N\NC(=O)c1cc2c(s1)CCC(C)C2)c1ccncc1` (centres undefined) reads -0.506; that for `COc1ccc(Cn2cnc3c(NS(C)(=O)=O)c(C)c(C)cc32)cc1`, 0.215; that for `COc1cc(C2N(c3cc(C)on3)C(=O)C3CCCN32)cc(OC)c1OC` (centres undefined), 0.437. On to `CCCc1nc(N)c(C#N)c(N)c1C#N`, for which the z-score was -0.0915. The result for `COc1cc(C2C(C#N)=C(N)Oc3c2oc(CO)cc3=O)ccc1OC(C)C` (centres undefined) reads -0.026; that for `Cc1ccc(C(=O)N2CCN(c3ncccn3)CC2)o1`, 0.714; that for `Cc1cc([N+](=O)[O-])nn1CC(=O)NNC(=S)Nc1ccc(F)cc1`, -0.206.

In the case of `O=S(=O)(NCc1ccc2c(c1)OCO2)c1ccc2oc3ccccc3c2c1`, the z-score was -0.125. The result for `CC(C)Oc1ccc(Cc2cnc(N)nc2N)cc1` reads 1.03. Regarding `Cc1ccc(C(=O)n2nnc3ccccc32)cc1`, the z-score amounted to 0.00893.

In turn, `Cc1ccc(OCc2nnc(SCc3ccc(C#N)cc3)n2-c2ccc(C)cc2)cc1` had a z-score of 0.69. Turning to `CCC(C)[C@H](NC(=O)N1CCCC1)C(=O)O` (some centres undefined), the z-score was determined as 0.0774. The result for `Cc1cc(C)n(-c2ncnc3sc(C)c(C)c23)n1` reads -0.0949; that for `CC(C)Cc1ccc(C(C)C(=O)Nc2nccs2)cc1` (centres undefined), -0.384; that for `COc1ccc(CCNC(=O)CCCn2c(=O)[nH]c3cc(OC)c(OC)cc3c2=O)cc1OC`, 0.13.

The values above are taken from PubChem BioAssay AID488969 (Vanderbilt High Throughput Screening Facility, 2010).
